{
  "source": "the supplement of paper PMC8728848",
  "binders": {"B1": {"name": "Gal 7 (Homo sapiens) (protein)", "chain": "MSNVPHKSSLPEGIRPGTVLRIRGLVPPNASRFHVNLLCGEEGGSDAALHFNPRLDTSEVVFNSKEGGSWGREESGPGVPFGRGQPFEVLIIASDDGFKAVVGDAQYHHFRHRLPLARVRLVEVGGDVQLDSVRIF"}},
  "assay_in_all_cases": "glycan array binding signal (z-score within array); higher = stronger binding",
  "conditions_in_all_cases": "glycan notation: IUPAC condensed, linker removed; mutation: R74S",
  "key": {"[1]": {"target": "GlcNAc(b1-4)GlcNAc(b1-4)GlcNAc(b1-4)GlcNAc(b1-4)GlcNAc", "how_it_was_run": "(§1)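 Negative Z-scores can be read as non-binding. The Z-score is calculated within each array and then averaged across arrays of one protein sequence at different concentrations or buffers and across linkers. Arrays, 3228 in all, were curated from the Consortium for Functional Glycomics database and kept only where the protein sequence was available.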"}, "[2]": {"target": "GlcNAc(b1-4)GlcNAc(b1-4)GlcNAc(b1-4)GlcNAc(b1-4)GlcNAc(b1-4)GlcNAc", "how_it_was_run": "as §1"}, "[3]": {"target": "GlcNAc(b1-4)[GlcNAc(b1-6)]GalNAc", "how_it_was_run": "as §1"}, "[4]": {"target": "GlcNAc(b1-6)Gal(b1-4)GlcNAc", "how_it_was_run": "as §1"}, "[5]": {"target": "GlcNAc(b1-6)GalNAc", "how_it_was_run": "as §1"}, "[6]": {"target": "GlcNAc6S(b1-3)Gal(b1-4)GlcNAc", "how_it_was_run": "as §1"}, "[7]": {"target": "Kdn(a2-3)Gal(b1-3)GalNAc", "how_it_was_run": "as §1"}, "[8]": {"target": "Kdn(a2-3)Gal(b1-3)GlcNAc", "how_it_was_run": "as §1"}, "[9]": {"target": "Kdn(a2-3)Gal(b1-4)Glc", "how_it_was_run": "as §1"}, "[10]": {"target": "Kdn(a2-3)Gal(b1-4)GlcNAc", "how_it_was_run": "as §1"}, "[11]": {"target": "Kdn(a2-3)Gal(b1-4)[Fuc(a1-3)]GlcNAc", "how_it_was_run": "as §1"}, "[12]": {"target": "Kdn(a2-6)Gal(b1-4)GlcNAc", "how_it_was_run": "as §1"}, "[13]": {"target": "Man(a1-2)Man(a1-2)Man(a1-3)Man", "how_it_was_run": "as §1"}, "[14]": {"target": "Man(a1-2)Man(a1-2)Man(a1-6)[Man(a1-3)]Man", "how_it_was_run": "as §1"}, "[15]": {"target": "Man(a1-2)Man(a1-3)Man", "how_it_was_run": "as §1"}, "[16]": {"target": "Man(a1-2)Man(a1-3)[Man(a1-2)Man(a1-6)]Man", "how_it_was_run": "as §1"}, "[17]": {"target": "Man(a1-2)Man(a1-3)[Man(a1-2)Man(a1-6)]Man(a1-6)[Man(a1-2)Man(a1-2)Man(a1-3)]Man", "how_it_was_run": "as §1"}, "[18]": {"target": "Man(a1-2)Man(a1-3)[Man(a1-2)Man(a1-6)]Man(a1-6)[Man(a1-2)Man(a1-2)Man(a1-3)]Man(b1-4)GlcNAc(b1-4)GlcNAc", "how_it_was_run": "as §1"}, "[19]": {"target": "Man(a1-2)Man(a1-3)[Man(a1-6)]Man(a1-6)[Man(a1-2)Man(a1-3)]Man(b1-4)GlcNAc(b1-4)GlcNAc", "how_it_was_run": "as §1"}, "[20]": {"target": "Man(a1-2)Man(a1-6)[Man(a1-3)]Man(a1-6)[Man(a1-2)Man(a1-2)Man(a1-3)]Man", "how_it_was_run": "as §1"}, "[21]": {"target": "Man(a1-2)Man(a1-6)[Man(a1-3)]Man(a1-6)[Man(a1-2)Man(a1-2)Man(a1-3)]Man(b1-4)GlcNAc(b1-4)GlcNAc", "how_it_was_run": "as §1"}, "[22]": {"target": "Man(a1-3)[Man(a1-6)]Man", "how_it_was_run": "as §1"}, "[23]": {"target": "Man(a1-3)[Man(a1-6)]Man(a1-6)[Man(a1-2)Man(a1-3)]Man(b1-4)GlcNAc(b1-4)GlcNAc", "how_it_was_run": "as §1"}, "[24]": {"target": "Man(a1-3)[Man(a1-6)]Man(a1-6)[Man(a1-3)]Man", "how_it_was_run": "as §1"}, "[25]": {"target": "Man(a1-3)[Man(a1-6)]Man(a1-6)[Man(a1-3)]Man(b1-4)GlcNAc(b1-4)GlcNAc", "how_it_was_run": "as §1"}, "[26]": {"target": "Man(a1-3)[Man(a1-6)]Man(b1-4)GlcNAc(b1-4)GlcNAc", "how_it_was_run": "as §1"}, "[27]": {"target": "Man(a1-3)[Man(a1-6)]Man(b1-4)GlcNAc(b1-4)[Fuc(a1-6)]GlcNAc", "how_it_was_run": "as §1"}, "[28]": {"target": "Man(a1-6)Man", "how_it_was_run": "as §1"}, "[29]": {"target": "Man(b1-4)GlcNAc", "how_it_was_run": "as §1"}, "[30]": {"target": "MurNAc(b1-4)GlcNAc", "how_it_was_run": "as §1"}, "[31]": {"target": "Neu5Ac(a2-3)Gal", "how_it_was_run": "as §1"}, "[32]": {"target": "Neu5Ac(a2-3)Gal(b1-3)GalNAc", "how_it_was_run": "as §1"}, "[33]": {"target": "Neu5Ac(a2-3)Gal(b1-3)GalNAc(b1-3)Gal(a1-4)Gal(b1-4)Glc", "how_it_was_run": "as §1"}, "[34]": {"target": "Neu5Ac(a2-3)Gal(b1-3)GalNAc(b1-4)Gal(b1-4)Glc", "how_it_was_run": "as §1"}, "[35]": {"target": "Neu5Ac(a2-3)Gal(b1-3)GalNAc(b1-4)[Neu5Ac(a2-3)]Gal(b1-4)Glc", "how_it_was_run": "as §1"}, "[36]": {"target": "Neu5Ac(a2-3)Gal(b1-3)GalNAc(b1-4)[Neu5Ac(a2-8)Neu5Ac(a2-3)]Gal(b1-4)Glc", "how_it_was_run": "as §1"}, "[37]": {"target": "Neu5Ac(a2-3)Gal(b1-3)GalNAc6S", "how_it_was_run": "as §1"}, "[38]": {"target": "Neu5Ac(a2-3)Gal(b1-3)GlcNAc", "how_it_was_run": "as §1"}, "[39]": {"target": "Neu5Ac(a2-3)Gal(b1-3)GlcNAc(b1-2)Man", "how_it_was_run": "as §1"}, "[40]": {"target": "Neu5Ac(a2-3)Gal(b1-3)GlcNAc(b1-2)Man(a1-3)[GlcNAc(b1-4)][Neu5Ac(a2-3)Gal(b1-3)GlcNAc(b1-2)Man(a1-6)]Man(b1-4)GlcNAc(b1-4)GlcNAc", "how_it_was_run": "as §1"}, "[41]": {"target": "Neu5Ac(a2-3)Gal(b1-3)GlcNAc(b1-2)Man(a1-3)[Neu5Ac(a2-3)Gal(b1-3)GlcNAc(b1-2)Man(a1-6)]Man(b1-4)GlcNAc(b1-4)GlcNAc", "how_it_was_run": "as §1"}, "[42]": {"target": "Neu5Ac(a2-3)Gal(b1-3)GlcNAc(b1-2)[Neu5Ac(a2-3)Gal(b1-3)GlcNAc(b1-4)]Man(a1-6)[Neu5Ac(a2-3)Gal(b1-3)GlcNAc(b1-2)Man(a1-3)]Man(b1-4)GlcNAc(b1-4)GlcNAc", "how_it_was_run": "as §1"}, "[43]": {"target": "Neu5Ac(a2-3)Gal(b1-3)GlcNAc(b1-3)Gal(b1-3)GlcNAc", "how_it_was_run": "as §1"}, "[44]": {"target": "Neu5Ac(a2-3)Gal(b1-3)GlcNAc(b1-3)Gal(b1-4)GlcNAc", "how_it_was_run": "as §1"}, "[45]": {"target": "Neu5Ac(a2-3)Gal(b1-3)GlcNAc(b1-3)GalNAc", "how_it_was_run": "as §1"}},
  "note": "The other results are listed elsewhere or left out.",
  "data": [
    {"binder": "B1", "values": [
      {"measurement": "glycan array binding signal (z-score)", "setting": "[1]", "value": -0.329},
      {"measurement": "glycan array binding signal (z-score)", "setting": "[2]", "value": -0.548},
      {"measurement": "glycan array binding signal (z-score)", "setting": "[3]", "value": -0.742},
      {"measurement": "glycan array binding signal (z-score)", "setting": "[4]", "value": -0.595},
      {"measurement": "glycan array binding signal (z-score)", "setting": "[5]", "value": -0.571},
      {"measurement": "glycan array binding signal (z-score)", "setting": "[6]", "value": -0.296},
      {"measurement": "glycan array binding signal (z-score)", "setting": "[7]", "value": -0.42},
      {"measurement": "glycan array binding signal (z-score)", "setting": "[8]", "value": -0.611},
      {"measurement": "glycan array binding signal (z-score)", "setting": "[9]", "value": -0.078},
      {"measurement": "glycan array binding signal (z-score)", "setting": "[10]", "value": -0.408},
      {"measurement": "glycan array binding signal (z-score)", "setting": "[11]", "value": -0.427},
      {"measurement": "glycan array binding signal (z-score)", "setting": "[12]", "value": -0.539},
      {"measurement": "glycan array binding signal (z-score)", "setting": "[13]", "value": -0.266},
      {"measurement": "glycan array binding signal (z-score)", "setting": "[14]", "value": -0.342},
      {"measurement": "glycan array binding signal (z-score)", "setting": "[15]", "value": -0.339},
      {"measurement": "glycan array binding signal (z-score)", "setting": "[16]", "value": -0.499},
      {"measurement": "glycan array binding signal (z-score)", "setting": "[17]", "value": -0.486},
      {"measurement": "glycan array binding signal (z-score)", "setting": "[18]", "value": -0.459},
      {"measurement": "glycan array binding signal (z-score)", "setting": "[19]", "value": 0.255},
      {"measurement": "glycan array binding signal (z-score)", "setting": "[20]", "value": -0.26},
      {"measurement": "glycan array binding signal (z-score)", "setting": "[21]", "value": -0.537},
      {"measurement": "glycan array binding signal (z-score)", "setting": "[22]", "value": -0.223},
      {"measurement": "glycan array binding signal (z-score)", "setting": "[23]", "value": -0.14},
      {"measurement": "glycan array binding signal (z-score)", "setting": "[24]", "value": 1.78},
      {"measurement": "glycan array binding signal (z-score)", "setting": "[25]", "value": -0.487},
      {"measurement": "glycan array binding signal (z-score)", "setting": "[26]", "value": -0.307},
      {"measurement": "glycan array binding signal (z-score)", "setting": "[27]", "value": -0.238},
      {"measurement": "glycan array binding signal (z-score)", "setting": "[28]", "value": 0.827},
      {"measurement": "glycan array binding signal (z-score)", "setting": "[29]", "value": 0.24},
      {"measurement": "glycan array binding signal (z-score)", "setting": "[30]", "value": -0.539},
      {"measurement": "glycan array binding signal (z-score)", "setting": "[31]", "value": -0.449},
      {"measurement": "glycan array binding signal (z-score)", "setting": "[32]", "value": -0.316},
      {"measurement": "glycan array binding signal (z-score)", "setting": "[33]", "value": -0.238},
      {"measurement": "glycan array binding signal (z-score)", "setting": "[34]", "value": -0.29},
      {"measurement": "glycan array binding signal (z-score)", "setting": "[35]", "value": -0.265},
      {"measurement": "glycan array binding signal (z-score)", "setting": "[36]", "value": -0.359},
      {"measurement": "glycan array binding signal (z-score)", "setting": "[37]", "value": -0.673},
      {"measurement": "glycan array binding signal (z-score)", "setting": "[38]", "value": -0.228},
      {"measurement": "glycan array binding signal (z-score)", "setting": "[39]", "value": -0.105},
      {"measurement": "glycan array binding signal (z-score)", "setting": "[40]", "value": -0.228},
      {"measurement": "glycan array binding signal (z-score)", "setting": "[41]", "value": 0.398},
      {"measurement": "glycan array binding signal (z-score)", "setting": "[42]", "value": 0.541},
      {"measurement": "glycan array binding signal (z-score)", "setting": "[43]", "value": -0.625},
      {"measurement": "glycan array binding signal (z-score)", "setting": "[44]", "value": -0.501},
      {"measurement": "glycan array binding signal (z-score)", "setting": "[45]", "value": -0.585}
    ]}
  ]
}
